# Assay results from publication PMC4336329 (PLoS ONE, 2015).
# Among all 310,000 compounds or so, about 14,000 (4.5%) showed an effect of 50% or more. Effects have a minus sign here. The list shows a part of the results.
# Biological target: human ether-à-go-go-related gene (hERG) potassium channel (human, UniProt Q12809)
# Test: primary screen, population patch clamp on CHO cells stably expressing hERG
# 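Note: peak tail current of the secondary pulse compared with the same well before compound.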
# Sequence of human ether-à-go-go-related gene (hERG) potassium channel (Q12809 whole entry, looked up): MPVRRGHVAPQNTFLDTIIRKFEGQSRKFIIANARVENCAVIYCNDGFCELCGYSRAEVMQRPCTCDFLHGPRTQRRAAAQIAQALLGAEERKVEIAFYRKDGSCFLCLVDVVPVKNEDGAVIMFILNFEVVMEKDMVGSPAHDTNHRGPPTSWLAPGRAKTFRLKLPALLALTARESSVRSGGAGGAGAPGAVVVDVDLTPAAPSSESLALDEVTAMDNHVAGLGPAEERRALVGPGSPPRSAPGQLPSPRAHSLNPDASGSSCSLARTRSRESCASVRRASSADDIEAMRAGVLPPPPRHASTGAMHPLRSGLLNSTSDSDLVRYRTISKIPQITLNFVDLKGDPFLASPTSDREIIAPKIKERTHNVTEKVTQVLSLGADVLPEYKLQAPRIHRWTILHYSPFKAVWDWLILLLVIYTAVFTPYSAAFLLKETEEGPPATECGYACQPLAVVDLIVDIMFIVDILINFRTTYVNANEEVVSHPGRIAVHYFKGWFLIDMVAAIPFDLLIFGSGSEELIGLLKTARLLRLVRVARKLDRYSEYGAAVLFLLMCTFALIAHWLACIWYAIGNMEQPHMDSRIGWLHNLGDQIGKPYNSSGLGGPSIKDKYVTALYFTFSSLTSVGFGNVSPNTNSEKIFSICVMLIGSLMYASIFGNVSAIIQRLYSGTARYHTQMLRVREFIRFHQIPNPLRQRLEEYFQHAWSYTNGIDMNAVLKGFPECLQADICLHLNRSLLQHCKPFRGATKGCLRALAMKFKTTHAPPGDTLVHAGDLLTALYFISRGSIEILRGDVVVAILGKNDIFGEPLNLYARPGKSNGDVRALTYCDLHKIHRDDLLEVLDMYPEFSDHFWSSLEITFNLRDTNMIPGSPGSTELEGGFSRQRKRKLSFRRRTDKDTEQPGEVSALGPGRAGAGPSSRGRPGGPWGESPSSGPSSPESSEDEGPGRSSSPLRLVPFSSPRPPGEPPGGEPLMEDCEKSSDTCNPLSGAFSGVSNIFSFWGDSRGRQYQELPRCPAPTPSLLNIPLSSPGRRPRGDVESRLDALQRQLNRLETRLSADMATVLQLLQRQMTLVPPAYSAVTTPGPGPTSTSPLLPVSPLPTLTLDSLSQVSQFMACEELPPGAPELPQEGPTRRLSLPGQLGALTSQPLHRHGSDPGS
row,SMILES,"hERG current change (%, negative = inhibition) at 10uM [%]"
1,CC(C)c1ccc(C2NC(=S)NC3=C2C(=O)CC(C)(C)C3)cc1 (centres unmarked),0.27
2,COc1ccc(-c2n[nH]c(=S)n2/N=C/C=C/c2ccccc2OC)cc1,1.37
3,CC(O)c1nc2ccccc2n1CC(=O)Nc1ccc(F)cc1Cl (centres unmarked),14.2
4,CCOc1ccc(S(=O)(=O)N(C)c2ccc(OCC(=O)Nc3ccc4[nH]c(=O)[nH]c4c3)cc2)cc1,19.1
5,COC(=O)C1(S(=O)(=O)c2cccc3nsnc23)CC1,9.65
6,COC(=O)c1cc(Cc2ccc(N)c(C(=O)OC)c2)ccc1N,11.5
7,CCC(C)N(CC(=O)Nc1cccc(C)c1C)C(=O)CCl (centres unmarked),10.6
8,Cc1ccc(NC(=O)N(Cc2nc3ccccc3c(=O)[nH]2)Cc2cccs2)cc1,-23.7
9,CCCCCC1C/C(=N\O)C=C(C)C1C(=O)OC (centres unmarked),-3.03
10,COC(=O)CNC(=O)C1CCN(S(=O)(=O)c2cnc[nH]2)CC1,-1.84
11,Cc1ccc(NC(=O)c2cccs2)cc1S(=O)(=O)Nc1cccc(Cl)c1,8.25
12,Cc1cc(Cn2ccnc2)c(C)c([N+](=O)[O-])c1Cn1ccnc1,-7.19
13,CC(C)(C)OC(=O)N1CSC[C@H]1C(=O)NC[C@H](CC(=O)O)c1ccc(Cl)cc1,17.6
14,Cc1ccc(S(=O)(=O)c2nnn3c2nc(N2CCC(C(N)=O)CC2)c2ccccc23)cc1C,-33.7
15,NC(=O)CSc1ncnc2c1cnn2Cc1ccccc1,10.8
16,O=C1/C(=C/c2ccccc2)SC(=S)N1N1C(=O)C2CC2C1=O (centres unmarked),-1.95
17,COC(=O)c1cc2c(s1)-c1ccc(OC)cc1CC2,21.4
18,Cc1ccc(S(=O)(=O)N2CCN(S(=O)(=O)c3ccc(C)cc3)C3OCCOC32)cc1 (centres unmarked),4.74
19,CCOc1ccc2nc(SC3CC(=O)N(c4ccc(OC)cc4OC)C3=O)sc2c1 (centres unmarked),-5.66
20,Cc1c(C)n2c(SCC(=O)N3CCCCCC3)nnc2[nH]c1=O,18.8
21,O=[N+]([O-])c1ccccc1S(=O)(=O)Nc1ccn(Cc2c(F)cccc2Cl)n1,5.7
22,CCOC(=O)/C(=N/Nc1ccccc1OC)N1CCCc2ccccc21,-1.38
23,O=C(COc1ccccc1)Nc1cccc(-c2ccc(N3CCOCC3)nn2)c1,0.467

row,SMILES,"hERG current change (%, negative = inhibition) at 10uM [%]"
1,CN(C)c1nc(N(C)C)n(C(=O)c2ccc(F)cc2)n1,4.79
2,O=[N+]([O-])c1ccc2c(c1)C(N1CCOCC1)/C(=C/COc1ccc(Cl)cc1Cl)O2 (centres unmarked),-1.06
3,Cc1ccc(NC(=O)Cn2c(=O)oc3ccccc32)cc1Cl,12.4
4,CCCCCn1c(CNC(=O)CCC)nc2ccccc21,-44.4
5,CCN=C1Cn2c(nc3scc(-c4ccccc4)c3c2=O)CN1CC,-35.4
6,CC1CCN(S(=O)(=O)c2ccc(NC(=O)Cc3cccs3)cc2)CC1,7.13
7,COc1ccc(S(=O)(=O)N2CCC(N3CCN(Cc4ccccc4)CC3)CC2)cc1.O=C(O)C(=O)O,-39.2
8,O=S(=O)(Nc1ccccc1Br)c1cccs1,5.74
9,CC1CCCCC12NC(=O)N(CC(=O)N(C)Cc1nc3ccccc3c(=O)[nH]1)C2=O (centres unmarked),-18.9
10,COc1ccc(-c2cc(C)no2)cc1S(=O)(=O)N1CCOc2ccccc21,-10.9
11,CCc1ccc(NC(=S)N(CCCN2CCN(C)CC2)Cc2cccs2)cc1,-62.5
12,Cc1ccc(SCCC(=O)OCn2nnc3ccccc3c2=O)cc1,36.9
13,CCNC(=O)C1CCCN1S(=O)(=O)c1ccc(C)cc1 (centres unmarked),11.7
14,O=C(NC(Cc1c[nH]c2ccccc12)C(=O)N1CCOCC1)c1cccs1 (centres unmarked),10.2
15,Cc1cc(C)c(C(=O)C(C)OC(=O)C2=COCCO2)cc1C (centres unmarked),8.77
16,Cc1c(NC(=O)c2cc(=O)[nH]c(=O)[nH]2)c(=O)n(-c2ccccc2)n1C,5.42
17,Cl.O=C1CSC(c2ccc([N+](=O)[O-])cc2)N1CCN1CCCCC1 (centres unmarked),-94.9
18,CC(C)(C)n1nc2c(c1NC(=O)c1ccc(Br)o1)CS(=O)C2 (centres unmarked),16.7
19,COc1ccccc1C(=O)NCCc1nc2ccccc2n1C,2.48
20,O=C(Nc1cccnc1)C1(c2ccc(Cl)cc2)CCCC1,-22.4
21,CN(C)c1ccc(S(=O)(=O)NCC(=O)OCC(=O)Nc2cc(Cl)cc(Cl)c2)cc1[N+](=O)[O-],6.75
22,O=C(NCN1C(=O)C2C3C=CC(C3)C2C1=O)Nc1nccs1 (centres unmarked),3.4
23,Cc1ccc(S(=O)(=O)/N=c2\ccc(Cl)cn2C(F)F)cc1,-9.9

row,SMILES,"hERG current change (%, negative = inhibition) at 10uM [%]"
1,Cc1cc2cc(CCNC(=O)c3ccc(S(=O)(=O)N4CCOCC4)cc3)c(=O)[nH]c2cc1C,6.3
2,O=C(CNC(=O)c1ccc(=O)[nH]c1)Nc1ccc(F)c(F)c1,6.19
3,Cc1ccc2c(c1)c(C)cc[n+]2Cc1ccccc1.[Cl-],-1.61
4,O=C(NN1CCOCC1)c1ccc(S(=O)(=O)N2CCCCC2)cc1,9.93
5,Cc1ccc(S(=O)(=O)NCc2ccccn2)cc1C,-2.65
6,CN1CCN(Cc2c(O)c(Cl)cc3c(-c4ccccc4)cc(=O)oc23)CC1,-3.97
7,CC1(C(=O)N2CCN(c3ccc([N+](=O)[O-])cc3)CC2)CC1(Cl)Cl (centres unmarked),-72.7
8,CC/C(C)=N/Nc1nc2sc3c(c2c(=O)[nH]1)CC(C)(C)OC3,-11.7
9,COc1ccc(NC(=O)CN(c2ccc(OC)cc2)S(=O)(=O)c2ccc(OC)c(OC)c2)cc1,-3.12
10,Cc1cc(C)cc(Oc2ccccc2/C=N\O)c1,-6.75
11,Cc1ccc(Cl)cc1NC(=O)COC(=O)C1CCCCC1,7.48
12,COc1ccc(C2CC(c3cccs3)=Nc3ccccc3S2)cc1 (centres unmarked),-3.39
13,CCOC(=O)C(=CNc1ccc(NC2=NCC(C)(C)S2)cc1)C(=O)OCC,-40.8
14,COC(=O)CN1CCN(C(=O)c2ccc(F)cc2)c2ccccc2C1,8.05
15,O=C(O)CCn1cc(/C=C2\SC(=S)NC2=O)c(-c2ccccc2)n1,21.8
16,C=CCN1C(=O)CS/C1=C(\C#N)S(=O)(=O)c1ccc(C)cc1,-5.25
17,CN(C)CCCOC(=O)c1ccc(Cl)cc1,-21.9
18,COc1ccc(-n2cc(CNCCCn3ccnc3)c(-c3cccc(F)c3)n2)cc1,-75.2
19,CCN(CC)S(=O)(=O)c1ccc2[nH]cc(C(=O)NCCN3CCCCC3C)c(=O)c2c1 (centres unmarked),-8.3
20,COc1ccc(CN2CCCCC2C)c(C)c1C (centres unmarked),-20.9
21,COc1cccc(CN2CC(C(=O)NCCOc3ccccc3)CCC2=O)c1 (centres unmarked),-8.6
22,Cc1cc(C(=O)N2CCN(c3ncccn3)CC2)c(C)o1,12.3
23,Cc1nn2c(=O)cc(CSc3nc4ccccc4[nH]3)nc2s1,9.19

row,SMILES,"hERG current change (%, negative = inhibition) at 10uM [%]"
1,Cc1cc(C)n(-c2nc(SCCN(C)C)c3c4c(sc3n2)COC(C)(C)C4)n1,-59.1
2,O=C(c1ccc(Cl)c(S(=O)(=O)N2CCc3ccccc3C2)c1)N1CCN(c2ccccc2)CC1,-3.58
3,CNc1ccc2nnc(C(F)(F)C(F)(F)C(F)(F)F)n2n1,13.9
4,CC(C)NC(=O)NC(=O)CSc1nnc(-c2c[nH]c3ccccc23)o1,21.6
5,O=C(COc1ncnc2ccccc12)Nc1cccc([N+](=O)[O-])c1,-2.61
6,COc1ccc(C(=O)c2c3ccc(OC)cc3[n+]([O-])n2Cc2ccc(C(N)=O)cc2)cc1,-42
7,CCOC(=O)c1cc(-c2ccccc2)sc1NC(=O)CC(C)C,-3.78
8,CCC1(C)N=c2c(c(=O)n(C)c(=O)n2C)=NO1 (centres unmarked),-8.49
9,COc1ccc(F)cc1CN1CCN(CC(=O)Nc2ccccc2C(=O)NC2CC2)CC1,-87.6
10,C/C(Cn1cnc([N+](=O)[O-])n1)=N\NC(=O)c1cccnc1,-4.25
11,CCc1cc2cccc(C)c2nc1SCC(=O)NC1CCCC1,0.843
12,O=C(CSc1nc2ccccc2o1)N1CCCC1,10.9
13,COC(=O)COc1ccc(NC(=O)C2CCCO2)cc1 (centres unmarked),11.6
14,FC(F)(F)c1cccc(CNC(=S)Nc2ccccc2)c1,-12.7
15,Cc1c(Cl)cccc1NC(=S)NC(=O)CCN1C(=O)c2ccccc2C1=O,20.6
16,Cc1ccc(NC(=S)N2CCN(Cc3ccccc3)CC2)c(C)c1,-3.93
17,Cc1[nH]c(C(=O)O)c(C#N)c1C(=O)c1ccccc1,19
18,Cc1ccc(C23CCC(=O)N2C(C(=O)O)CS3)c(C)c1 (centres unmarked),12.1
19,Cc1ccc(C)c(NC(=S)N2CCC(NC(=O)c3ccc(F)cc3)CC2)c1,15.7
20,COCc1cc(=O)n2[nH]c(SC)nc2n1,-9.64
